In all, about 220,000 compounds went through this assay and about 16,000 (7.3%) were called active. The shares of active, inactive and inconclusive entries below differ from those in the screen. The call rests on the fitted dose curve; in most records, active means well fitted inhibition curve with a large enough effect (not every such curve was filed as active); inconclusive means small, poorly fitted or top-dose-only effect, or another doubt; inactive means no such curve, though single readings can be large or run the other way. Potencies of inconclusive entries are left out as doubtful fits.
The compounds below were run against Aldehyde dehydrogenase 1A1 (Homo sapiens) (UniProt P00352) (assay: qHTS Assay for Inhibitors of Aldehyde Dehydrogenase 1 (ALDH1A1)). Conditions: Purified ALDH1A1, NADH fluorescence, propionaldehyde substrate; series mostly up to 75.3 µM.
Sequence of UniProt P00352 (P00352 whole entry, looked up): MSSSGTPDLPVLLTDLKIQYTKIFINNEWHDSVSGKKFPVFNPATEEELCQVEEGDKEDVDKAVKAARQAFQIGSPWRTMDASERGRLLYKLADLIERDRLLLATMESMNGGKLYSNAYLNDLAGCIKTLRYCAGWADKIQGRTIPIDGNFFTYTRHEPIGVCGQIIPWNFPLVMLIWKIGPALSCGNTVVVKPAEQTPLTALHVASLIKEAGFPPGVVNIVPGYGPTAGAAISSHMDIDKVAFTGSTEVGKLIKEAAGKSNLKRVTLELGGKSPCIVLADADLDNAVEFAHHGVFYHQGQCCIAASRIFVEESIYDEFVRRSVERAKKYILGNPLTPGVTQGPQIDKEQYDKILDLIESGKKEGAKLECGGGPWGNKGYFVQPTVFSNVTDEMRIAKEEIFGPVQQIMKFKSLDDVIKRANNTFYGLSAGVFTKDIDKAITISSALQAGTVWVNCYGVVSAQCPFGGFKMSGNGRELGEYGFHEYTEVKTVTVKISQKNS
Potency means the concentration at half of the fitted maximal effect; tags describe the fitted curve by direction and shape.

Compound | Potency
CCOC(=O)c1ccc(NC(=O)c2ccc(OC(C)C)c(OC)c2)cc1 | inconclusive [inhibitor, single point]
O=C(CSc1nnc2ccccn12)NC(=O)Cc1ccccc1 | inactive
COc1ccc(-c2cc(C(=O)Nc3ccccc3N3CCOCC3)c3ccccc3n2)cc1OC | inconclusive [inhibitor, single point]
O=C1CN(C(=O)COC(=O)CCC(=O)c2ccc3c(c2)OCCO3)c2ccccc2N1 | inconclusive [inhibitor, single point]
COCC(C)NCc1cccc(OC)c1OC (configuration not stated) | inconclusive [inhibitor, single point]
COc1ccc(/C=C/C(=O)Nc2cc(S(=O)(=O)N3CCOCC3)ccc2C)cc1OC | inconclusive [inhibitor, single point]
CC(CCc1ccccc1)NC(=O)C(=O)Nc1ccccc1 (configuration not stated) | inactive
CC(=O)n1cc([C@@H]2C=C(C(=O)N3CCN(Cc4ccc5c(c4)OCO5)CC3)O[C@H](OCc3ccc(CO)cc3)C2)c2ccccc21 | active: 25.1 µM
O=C(CCc1nnc(CCC2CCCCC2)o1)NCCn1cccn1 | inactive
CN(C)/C=N/c1ncc(-c2ncc(C(F)(F)F)cc2Cl)cn1 | inconclusive [inhibitor, partial curve]
CCOC(=O)Cn1c2ccccc2c2nc3ccccc3nc21 | inconclusive [inhibitor, full curve]
CC(C)C[C@H](NC(=O)c1nc[nH]c1C(=O)NC(c1ccccc1)c1ccccc1)C(=O)OCc1ccccc1 | inconclusive [inhibitor, partial curve]
Cc1cccc(Nc2nc(-c3ccccn3)cs2)n1 | inconclusive [inhibitor, partial curve]
O=c1c2c(n3cnnc3n1-c1ccccc1)-c1ccccc1CC21CCCCC1 | active: 20 µM
CC(=O)c1cc(-c2ccccc2)n(CCC(=O)NC2CCC(C)CC2)c1C (configuration not stated) | inconclusive [inhibitor, partial curve]
CCSc1ccccc1C(=O)N1CCN(c2ccc([N+](=O)[O-])cc2)CC1 | active: 14.1 µM
N#CC(C#N)=C1C=C2C=C(N3CCCCCC3)CCC2CC1 (configuration not stated) | inconclusive [inhibitor, single point]
CCCC1(C)Nc2ccccc2-c2nc3ccccc3n21 (configuration not stated) | inconclusive [inhibitor, partial curve]
COc1ccc(-c2nnc(SCC3CCCO3)n2C)cc1 (configuration not stated) | inconclusive [inhibitor, single point]
CCCn1c(=O)c(C(=O)NCC2CCCO2)c(O)c2ccccc21 (configuration not stated) | inactive
COC(=O)C(=NNc1c(C)n(C)n(-c2ccccc2)c1=O)C(=O)OC | inactive
COc1ccccc1NS(=O)(=O)c1cccc(N2CC(O)=C(c3ccccc3)C2=N)c1 | inactive
CC(C)CN(C(=O)COC(=O)c1ccc2c(c1)NC(=O)CS2)C1CCS(=O)(=O)C1 (configuration not stated) | active: 39.8 µM
Cc1ccsc1/C=N/NC(=O)c1ccccn1 | inactive

Compound | Potency
Nc1nc(NC(=O)/C=C/c2ccc(F)cc2)nn1-c1ccccc1 | inactive
CN(C)c1ccc(C(=S)NC2CCCCC2)cc1 | active: 3.55 µM
COc1cccc([C@H]2Oc3ccc(OC)cc3/C(=N\O[C@@H]3O[C@H](COC(C)=O)[C@H](OC(C)=O)[C@H](OC(C)=O)[C@H]3OC(C)=O)[C@@H]2O)c1 | inconclusive [inhibitor, partial curve]
CCCCN(CC)CCNC(=O)c1cc2c(=O)n(C)c3ccccc3c2n1C | inconclusive [inhibitor, single point]
CC(=O)OCCn1c(C)[n+](CCOC(C)=O)c2cc(Cl)c(Cl)cc21 | inactive
CCCCN(C)CCNC(=O)c1c[nH]c2ccc(S(=O)(=O)N(CC)CC)cc2c1=O | inconclusive [inhibitor, single point]
CC(NC(=O)COC(=O)c1cn(-c2ccccc2)nc1-c1cccs1)c1ccccc1 (configuration not stated) | inconclusive [inhibitor, single point]
CCOc1ccc(/C=C2\SC(=S)N(N3C(=O)C4CC4C3=O)C2=O)cc1 (configuration not stated) | inconclusive [inhibitor, single point]
O=C1c2ccc([N+](=O)[O-])cc2C(=O)N1c1ccc(Cl)cn1 | inactive
CC1CC(C)CN(C(=O)c2ccc(C#N)cc2)C1 (configuration not stated) | inconclusive [inhibitor, single point]
Cc1ccc(C(=O)N2CCCC2)cc1Br | inactive
O=C(CCN1C(=O)c2ccc([N+](=O)[O-])cc2C1=O)Nc1ccc(O)cc1C(=O)O | inactive
Cc1cccc(Nc2nc3c(s2)CCCC3)c1 | active: 20 µM
CC(C)c1cc[n+](-c2nc([O-])sc2C=O)cc1 | inconclusive [inhibitor, single point]
Oc1oc(-c2ccccc2Br)nc1C=Nc1ccc(Br)cn1 | inconclusive [inhibitor, partial curve, poor fit]
O=C(Nc1ncc2c(n1)-c1ccccc1OC2)c1ccccc1Cl | inconclusive [inhibitor, partial curve]
CC[n+]1c(/C=C/N(C)c2ccccc2)oc2ccc(F)cc21 | active: 14.1 µM
COc1ccc(-c2coc3c(CN4CCCCC4)c(O)c(CN4CCCCC4)c(O)c3c2=O)cc1 | inactive
COc1cc2cc(CN(CCc3cccc(C)c3)C(=S)NCCCN3CCOCC3)c(=O)[nH]c2cc1OC | inconclusive [inhibitor, single point]
Cc1nc(NCc2ccco2)c(C#N)c2c1COC(C)(C)C2 | inactive
C=CCn1c(SCC(=O)O)nc2sc(CC)cc2c1=O | inconclusive [inhibitor, single point]
O=C1CCCN1CCCNc1ccc(S(=O)(=O)N2CCCCC2)cn1 | inconclusive [inhibitor, single point]
CC(C)C(c1nnnn1Cc1ccccc1)N(Cc1ccco1)Cc1cccs1 (configuration not stated) | inconclusive [inhibitor, single point]
